# PubChem BioAssay AID504339 (National Center for Advancing Translational Sciences (NCATS), 2011)
# About 17,000 (4.4%) of roughly 390,000 compounds were called active. The inconclusive results got no clear call from the source; some entries with a clear call stand among them for comparison. Calls follow the shape of the dose curve; as a rule, active = well fitted inhibition curve with a large enough effect; inconclusive = small, poorly fitted or top-dose-only effect; inactive = no such curve, though single readings can be large or run the other way. A potency beside an inconclusive call is a rough fit, not a confirmed value.
# Target: Lysine-specific demethylase 4A (Homo sapiens) (UniProt O75164)
# Assay: qHTS Assay for Inhibitors of JMJD2A-Tudor Domain; also: nearly all actives have a fitted effect of over 50% in size
# Details: AlphaScreen JMJD2A-Tudor / H3K4me3 peptide binding; activity change, negative = inhibition: at 114 µM (top of the series)
# % is scaled to controls: 0 for no effect and ±100 for the full control effect; potency is read from the fitted curve at half-maximal effect; tags tell the direction and shape of the fitted curve.
# UniProt O75164, sequence (O75164 whole entry, looked up, the tested form may be a part): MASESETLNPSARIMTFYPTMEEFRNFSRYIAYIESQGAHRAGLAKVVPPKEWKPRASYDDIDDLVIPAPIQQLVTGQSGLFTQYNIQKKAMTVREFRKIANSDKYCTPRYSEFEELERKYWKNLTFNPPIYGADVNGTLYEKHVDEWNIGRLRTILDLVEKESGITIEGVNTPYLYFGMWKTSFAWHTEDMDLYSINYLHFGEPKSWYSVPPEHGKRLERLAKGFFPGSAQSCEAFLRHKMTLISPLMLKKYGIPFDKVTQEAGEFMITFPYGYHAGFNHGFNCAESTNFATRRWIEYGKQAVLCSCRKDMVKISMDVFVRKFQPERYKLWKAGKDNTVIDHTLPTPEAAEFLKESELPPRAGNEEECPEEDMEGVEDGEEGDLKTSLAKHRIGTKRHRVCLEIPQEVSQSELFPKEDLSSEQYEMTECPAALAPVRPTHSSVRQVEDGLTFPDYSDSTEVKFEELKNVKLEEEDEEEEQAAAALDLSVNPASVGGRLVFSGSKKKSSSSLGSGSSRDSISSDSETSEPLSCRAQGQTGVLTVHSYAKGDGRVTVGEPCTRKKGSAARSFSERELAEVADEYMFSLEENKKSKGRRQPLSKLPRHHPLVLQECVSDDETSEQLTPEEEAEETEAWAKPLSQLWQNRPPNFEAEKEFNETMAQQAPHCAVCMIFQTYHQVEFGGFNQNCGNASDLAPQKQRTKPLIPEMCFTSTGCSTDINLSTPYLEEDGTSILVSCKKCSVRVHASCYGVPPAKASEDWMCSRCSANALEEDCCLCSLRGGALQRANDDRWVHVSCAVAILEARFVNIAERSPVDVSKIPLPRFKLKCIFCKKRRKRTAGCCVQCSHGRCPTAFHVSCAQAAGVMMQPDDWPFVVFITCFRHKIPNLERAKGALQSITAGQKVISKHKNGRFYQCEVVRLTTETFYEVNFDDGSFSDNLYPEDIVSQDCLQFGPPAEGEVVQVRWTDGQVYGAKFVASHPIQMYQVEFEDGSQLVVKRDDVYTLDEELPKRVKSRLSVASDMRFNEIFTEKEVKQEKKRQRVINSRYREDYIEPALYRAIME
Compound,Potency,"activity change, negative = inhibition"
CCCCOc1ccccc1C(=O)NNC(=S)NC(=O)c1ccccc1[N+](=O)[O-],"inconclusive: 56.2 µM [inhibitor, partial curve]",
Cc1oc(-c2ccccc2F)nc1Cn1c(SCc2cccc(Cl)c2)nc2ccncc21,"inconclusive: 25.1 µM [inhibitor, partial curve]",
Cc1nc(NC(=O)c2ccco2)sc1-c1csc(Nc2ccc(Cl)cc2Cl)n1,"inconclusive: 50.1 µM [inhibitor, partial curve]",
S=c1[nH]c(-c2ccccc2)cn1/N=C/c1cccc2ccccc12,"inconclusive: 25.1 µM [inhibitor, full curve]",
COc1cc2c(cc1OC)CN(C(=O)c1cccc(S(=O)(=O)N3CCc4ccccc43)c1)CC2,"inconclusive: 44.7 µM [inhibitor, partial curve]",
CCOCc1c(C(=O)Nc2cc(OCC)c(N3CCOCC3)cc2OCC)oc2ccccc12,"inconclusive: 10 µM [inhibitor, partial curve]",
Cc1cc(C)n(C(C[N+](=O)[O-])c2ccc(Cl)cc2)n1 (stereo not given),"inconclusive: 79.4 µM [inhibitor, single point]",
CCOC(=O)c1ccc(-n2c(=S)sc3c(=O)[nH]c(C)nc32)cc1,"inconclusive: 50.1 µM [inhibitor, partial curve]",
CC1=NN(c2cccc(C(=O)O)c2)C(=O)/C1=C\C=C/c1ccccc1,"inconclusive: 28.2 µM [inhibitor, full curve, poor fit]",
CCc1ccc(C(=O)NC(=S)Nc2ccc(N3CCOCC3)cc2)cc1,"inconclusive: 22.4 µM [inhibitor, full curve]",
O=C(NNC(=O)C1CCCCC1)C(=O)NC1CCCCC1,"inconclusive: 89.1 µM [inhibitor, single point]",
O=[N+]([O-])c1ccc(S(=O)(=O)NCCCc2ccccc2)cc1,"inconclusive: 89.1 µM [inhibitor, partial curve]",
O=C(Nc1nccs1)C1CCCN(S(=O)(=O)c2cccnc2)C1 (stereo not given),"inconclusive: 28.2 µM [inhibitor, full curve]",
COC(=O)c1ccccc1NC(=O)C1CCCN(C(=O)c2cnn(-c3ccc(F)cc3)c2-n2cccc2)C1 (stereo not given),"inconclusive: 79.4 µM [inhibitor, partial curve]",
O=C(Cn1cnc([N+](=O)[O-])c1)Nc1cc(Oc2ccc(Cl)cc2Cl)cc([N+](=O)[O-])c1,"inconclusive: 15.8 µM [inhibitor, full curve]",
O=C1Nc2ccc(Br)cc2/C1=C/C(=O)c1ccc2c(c1)OCO2,"inconclusive: 17.8 µM [inhibitor, partial curve]",
CC(C)CN1C(=O)/C(=C/c2ccco2)NC1=S,"inconclusive: 44.7 µM [inhibitor, partial curve]",
O=C1CC(=O)N(Cc2cccs2)C(=O)N1,inactive,
O=C(/C=C/c1ccc(O)c(O)c1)OC(Cc1ccc(O)c(O)c1)C(=O)O (stereo not given),active: 12.6 µM,
O=C(COC(=O)/C=C/c1cccs1)Nc1cccc(S(=O)(=O)N2CCOCC2)c1,"inconclusive: 89.1 µM [inhibitor, single point]",
COc1ccc(CN2CCN(C(=O)CC(C)C)CC2)cc1Br,active: 79.4 µM,
O=c1[nH]n2c(=O)c3c([nH]c2c1N=Nc1ccccc1)CCC3,active: 50.1 µM,
CC(=O)c1c(O)c(C)c(-c2ccccc2)n(-c2ccccc2)c1=O,"inconclusive: 28.2 µM [inhibitor, single point]",
CCCCn1c(N)c(N(CCC(C)C)C(=O)C2CCCN(C(=O)c3ccc(Cl)cc3)C2)c(=O)[nH]c1=O (stereo not given),"inconclusive: 100 µM [inhibitor, single point]",

Compound,Potency,"activity change, negative = inhibition"
COC(=O)C1(C)NC(c2ccccc2C)C2C(=O)N(c3ccc(F)cc3)C(=O)C21 (stereo not given),"inconclusive: 39.8 µM [inhibitor, single point]",
O=C(CN1C(=O)CC(c2ccccc2)S(=O)(=O)c2ccccc21)N1CCCCC1 (stereo not given),inactive,
Cc1ccc2nc(NC(=O)CSc3nnc(C)c(=O)n3N)sc2c1,inactive,
C=CCN(CC=C)CCOc1ccccc1[N+](=O)[O-],active: 1 µM,
Cc1cccc(CSc2nc3c(c(=O)n2C)SCC3)c1,"inconclusive: 63.1 µM [inhibitor, partial curve]",
Cn1cccc1Cc1nnc(SCC(=O)NCc2ccc3c(c2)OCO3)n1CCc1ccccc1,"inconclusive: 44.7 µM [inhibitor, partial curve]",
CCOc1cccc(C2Oc3nc(SC)nnc3-c3ccccc3N2C(C)=O)c1OC (stereo not given),inactive,
CSc1cccc(CN2CCCC(C(=O)Nc3cccc(-n4cccn4)c3)C2)c1 (stereo not given),"inconclusive: 50.1 µM [inhibitor, partial curve]",
Cc1cccc(OCC(=O)N2CCC(N3CCCCCC3)CC2)c1,active: 3.16 µM,
CCC(=O)n1nc(-c2cccnc2)nc1NCc1ccccc1,"inconclusive: 35.5 µM [inhibitor, full curve]",
COc1cccc(Nc2nc(-c3ccc(O)cc3)cs2)c1,"inconclusive: 56.2 µM [inhibitor, partial curve]",
Cc1nn(CCC(=O)Nc2cccc(C#N)c2)c(C)c1S(=O)(=O)N1CCC(C)CC1,inactive,
Cc1ccc(NC(=O)C2CCCN2S(=O)(=O)c2ccc3c(c2)n(C)c(=O)c(=O)n3C)cc1 (stereo not given),inactive,
O=C(CN1C(=O)NC2(CCc3ccccc32)C1=O)Nc1ccccc1C(F)(F)F (stereo not given),inactive,
COc1cc2c(cc1OC)CN(c1ccc([N+](=O)[O-])cc1Cl)CC2,"inconclusive: 31.6 µM [inhibitor, single point]",
O=S(=O)(NC1CC1)c1ccc(S(=O)(=O)N(Cc2ccccn2)C2CCCC2)cc1,inactive,
N#Cc1c2n(c3c(=O)[nH]cnc13)CCCC2,inactive,
Cc1nn(-c2cc(N3CCCCC3)ccc2[N+](=O)[O-])c(=O)c2ccccc12,"inconclusive: 63.1 µM [inhibitor, partial curve, poor fit]",
Cc1c(NC(=O)C(C)NCC2CCCO2)c(=O)n(-c2ccccc2)n1C (stereo not given),"inconclusive: 17.8 µM [inhibitor, partial curve]",
CCN1CCN(c2nc(N)c([N+](=O)[O-])c(Nc3cccc(C)c3)n2)CC1,"inconclusive: 56.2 µM [inhibitor, partial curve]",
COc1cc2ccccc2cc1C(=O)Nc1ccc2oc(=O)ccc2c1,"inconclusive: 28.2 µM [inhibitor, full curve, poor fit]",
COc1ccc2ccccc2c1C(=O)/C=C\c1ccoc1,"inconclusive: 56.2 µM [inhibitor, partial curve]",
CCSc1nnc(NC(=O)CSc2nccn2-c2cccc(C)c2)s1,"inconclusive: 79.4 µM [inhibitor, partial curve]",
CCc1cc(C)cc(OCCNC(=O)c2ncn[nH]2)c1,"inconclusive: 56.2 µM [inhibitor, partial curve]",

Compound,Potency,"activity change, negative = inhibition"
CCOC(=O)C1=CN(CC2CCCCC2)CCC1=O,inactive,
CCN(CC)CCCSc1nc2ccccc2s1,active: 28.2 µM,
C=Cc1ccc(Cn2c(=O)n(-c3ccccc3C)c(=O)c3c4c(sc32)CN(C(C)=O)CC4)cc1,"inconclusive: 31.6 µM [inhibitor, partial curve]",
COC(=O)/C(C#N)=C(/Nc1ccc(F)c(Cl)c1)C(F)(F)F,inactive,
COc1ccc(C)cc1NC(=O)CN1C(=O)CCc2cc(S(=O)(=O)N3CCOCC3)ccc21,"inconclusive: 50.1 µM [inhibitor, partial curve]",
CC(=O)Nc1ccc(C(=O)CSc2nnc(C)o2)cc1,inactive,
CON(C)c1nc(Oc2ccc(=O)[nH]n2)nc(N(C)C)n1,inactive,
CCOc1ccccc1CN1CCN(CC2=Cc3cc(OC)ccc3OC2)CC1CCO (stereo not given),"inconclusive: 56.2 µM [inhibitor, partial curve]",
O=C(N/N=C/c1ccc2c(c1)OCO2)c1sc2cc(Cl)ccc2c1Cl,active: 89.1 µM,
COc1ccc(-n2c(-c3ccc(Br)cc3)n[nH]c2=S)cc1,active: 31.6 µM,
CC(=O)c1c(C)n(-c2cccc(C)c2)c2ccc(OC(=O)COc3ccccc3)cc12,inactive,
O=c1[nH]c2ccccc2n2c(=S)[nH]nc12,active: 3.55 µM,
CC(C)(C)C1CCc2c(sc3c2C(=O)NC(c2ccco2)N3)C1 (stereo not given),"inconclusive: 56.2 µM [inhibitor, partial curve]",
CCc1noc(C)c1C(=O)OCC(=O)Nc1nc(-c2ccc(F)c(F)c2)cs1,inactive,
COC(=O)c1[nH]c2cc(OC)ccc2c1NC(=O)CCN1CCN(c2ccccc2)CC1,inactive,
CCOc1ccc(CNC(=O)Cn2nc(C)c3sc4ccccc4c3c2=O)cc1,"inconclusive: 39.8 µM [inhibitor, full curve, poor fit]",
Clc1nc(Cl)nc(NCCC2=CCCCC2)n1,active: 89.1 µM,
COc1ccc2cc(C(=O)N3CCCC(Nc4ccc(F)cc4)C3)n(C)c2c1 (stereo not given),"inconclusive: 79.4 µM [inhibitor, partial curve]",
COc1ccc(/C=C/C(=O)c2cc(Cl)ccc2O)c(OC)c1,"inconclusive: 10 µM [inhibitor, partial curve, poor fit]",
Cc1[nH]c2ccc(OCc3ccccc3)cc2c1CCN1C(=O)OC(C)(C)C1(C)O (stereo not given),"inconclusive: 63.1 µM [inhibitor, partial curve]",
O=C(Nc1ccc(S(=O)(=O)NCc2ccco2)cc1)c1ccc2ccccc2n1,"inconclusive: 56.2 µM [inhibitor, partial curve]",
c1ccc(CSc2nnc3ccc(-c4ccco4)nn23)nc1,,inactive: 7.35% [at 11.4 µM]
